Reference: PMC4806292
Positions count from the first letter of the chain named. These are yes or no findings as the source states them, for the method shown. Some results given as binding are weak or reduced against the parent protein; the word gives no strength. For part of these data: Tags and fused reporters may be left off the sequences shown. Values belong to the substance of their own block, whether it stands above or below them.

By UniProt entry, the sequences of proteins in these tests, tags left out. Where a name states a change or a piece, a line headed by the entry shows the natural chain unless it says otherwise.
UniProt Q9H3P7: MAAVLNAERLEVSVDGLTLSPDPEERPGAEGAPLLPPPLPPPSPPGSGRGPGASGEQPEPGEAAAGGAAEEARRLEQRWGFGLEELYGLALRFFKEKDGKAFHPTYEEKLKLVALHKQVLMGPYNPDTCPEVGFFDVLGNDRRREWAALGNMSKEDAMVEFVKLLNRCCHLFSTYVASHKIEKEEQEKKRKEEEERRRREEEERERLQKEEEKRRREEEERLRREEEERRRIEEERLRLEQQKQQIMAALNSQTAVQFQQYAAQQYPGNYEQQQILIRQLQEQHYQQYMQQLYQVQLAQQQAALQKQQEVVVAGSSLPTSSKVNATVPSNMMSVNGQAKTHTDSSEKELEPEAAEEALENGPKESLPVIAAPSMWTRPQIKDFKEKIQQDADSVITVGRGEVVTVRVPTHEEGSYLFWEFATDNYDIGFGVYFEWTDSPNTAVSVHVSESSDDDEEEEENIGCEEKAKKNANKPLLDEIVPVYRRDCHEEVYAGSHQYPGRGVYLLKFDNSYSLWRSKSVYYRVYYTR

Columns and labels:
[1] = target: N-terminal His6GB1-tagged PI4KB (residues 423-522 removed) (human) (UniProt Q9UBF8); assay: pull-down; Ni-NTA sepharose beads, one partner with N-terminal His6GB1 tag immobilised, both partners 1 μM in 200 μL 30 mM Tris pH 8, 200 mM NaCl, 10 mM imidazole, 1 mM TCEP; 30 min at 4 °C; SDS gels stained with Coomassie Blue; both purified
[2] = target: PI4KB, untagged (residues 423-522 removed) (human) (UniProt Q9UBF8); assay: AUC; sedimentation velocity, full-length proteins alone and as complex, 5 μM (both proteins); 10 mM Tris pH 8, 200 mM NaCl, 3 mM β-mercaptoethanol, 20 °C, 48000 rpm; c(s) model; both purified
[3] = target: ACBD3 Q domain (residues 241-308) (human) (UniProt Q9H3P7); assay: AUC; sedimentation velocity, ACBD3 Q domain and PI4KB N-terminal region, 35 μM (both proteins); 10 mM Tris pH 8, 200 mM NaCl, 3 mM β-mercaptoethanol, 20 °C, 48000 rpm; c(s) model; both purified
[4] = target: T1, His6GB1-tagged PI4KB I43A mutant (human) (UniProt Q9UBF8); assay: pull-down; Ni-NTA sepharose beads, one partner with N-terminal His6GB1 tag immobilised, both partners 1 μM in 200 μL 30 mM Tris pH 8, 200 mM NaCl, 10 mM imidazole, 1 mM TCEP; 30 min at 4 °C; SDS gels stained with Coomassie Blue; both purified
T1 sequence: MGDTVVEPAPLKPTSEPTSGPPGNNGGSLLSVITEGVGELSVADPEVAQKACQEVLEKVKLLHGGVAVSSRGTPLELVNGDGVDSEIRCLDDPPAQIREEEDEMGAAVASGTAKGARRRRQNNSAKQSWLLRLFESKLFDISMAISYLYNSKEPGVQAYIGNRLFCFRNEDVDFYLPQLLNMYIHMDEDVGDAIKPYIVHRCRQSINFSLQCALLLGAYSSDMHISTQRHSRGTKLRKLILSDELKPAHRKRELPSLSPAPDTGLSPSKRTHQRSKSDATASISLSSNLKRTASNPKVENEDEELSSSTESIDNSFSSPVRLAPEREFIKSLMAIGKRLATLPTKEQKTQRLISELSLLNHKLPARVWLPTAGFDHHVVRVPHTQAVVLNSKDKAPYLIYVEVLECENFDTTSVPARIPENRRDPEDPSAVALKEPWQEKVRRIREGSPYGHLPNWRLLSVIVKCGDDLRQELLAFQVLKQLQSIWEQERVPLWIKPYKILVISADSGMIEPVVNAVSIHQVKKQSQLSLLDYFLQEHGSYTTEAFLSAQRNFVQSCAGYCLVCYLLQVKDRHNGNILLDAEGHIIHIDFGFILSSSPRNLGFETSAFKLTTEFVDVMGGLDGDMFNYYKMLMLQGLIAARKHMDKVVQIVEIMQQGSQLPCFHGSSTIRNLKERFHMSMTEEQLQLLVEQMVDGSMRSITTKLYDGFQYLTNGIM

[5] = target: T2, His6GB1-tagged PI4KB L56A mutant (human) (UniProt Q9UBF8); assay: as above
T2 sequence: T1 sequence with A43I, L56A

[6] = target: T3, His6GB1-tagged PI4KB V55A mutant (human) (UniProt Q9UBF8); assay: as above
T3 sequence: T1 sequence with A43I, V55A

binding [1]: no binding (tested: 1 μM)
Substance: ACBD3 F258A mutant, untagged (from UniProt Q9H3P7 1-528)

binding [1]: no binding (tested: 1 μM)
Substance: ACBD3 Y288A mutant, untagged (from UniProt Q9H3P7 1-528)

binding [2]: no binding (tested: 5 μM)
Substance: PI4KB, untagged (residues 423-522 removed) (from UniProt Q9UBF8 1-816) (enzyme)

binding [1]: no binding (tested: 1 μM)
Substance: ACBD3 H284A mutant, untagged (from UniProt Q9H3P7 1-528)

binding [3]: no binding (tested: 35 μM)
Substance: ACBD3 Q domain (residues 241-308) (from UniProt Q9H3P7 241-308) (domain or fragment)

binding [1]: binds weakly
Substance: ACBD3 Y285A mutant, untagged (from UniProt Q9H3P7 1-528)

binding [4]: no binding (tested: 1 μM)
binding [5]: no binding (tested: 1 μM)
binding [6]: no binding (tested: 1 μM)
Substance: Acyl-coenzyme A binding domain containing protein 3 (ACBD3), full length, untagged (from UniProt Q9H3P7 1-528)
